# This is one part of the list.
# B1: BC2L-A (Burkholderia cenocepacia), Q1BKJ8_BURCA (protein)
# chain: ADSQTSSNRAGEFSIPPNTDFRAIFFANAAEQQHIKLFIGDSQEPAAYHKLTTRDGPREATLNSGNGKIRFEVSVNGKPSATDARLAPINGKKSDGSPFTVNFGIVVSEDGHDSDYNDGIVVLQWPIG
# Key:
# Test in all cases: glycan array binding signal (z-score within array); higher = stronger binding
# Settings in all cases: glycan notation: IUPAC condensed, linker removed
# [1] = target: Gal(b1-3)GalNAc(a1-3)[Fuc(a1-2)]Gal(b1-4)Glc
# Method in brief: (§1)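 Negative Z-scores can be read as non-binding. The Z-score is calculated within each array and then averaged across arrays of one protein sequence at different concentrations or buffers and across linkers. Arrays, 3228 in all, were curated from the Consortium for Functional Glycomics database and kept only where the protein sequence was available.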
# [2] = target: Gal(b1-3)GalNAc(a1-3)[Fuc(a1-2)]Gal(b1-4)GlcNAc
# Method in brief: as §1
# [3] = target: Gal(b1-3)GalNAc(b1-3)Gal(a1-4)Gal(b1-4)Glc
# Method in brief: as §1
# [4] = target: Gal(b1-3)GalNAc(b1-4)Gal(b1-4)Glc
# Method in brief: as §1
# [5] = target: Gal(b1-3)GalNAc(b1-4)[Neu5Ac(a2-3)]Gal(b1-4)Glc
# Method in brief: as §1
# [6] = target: Gal(b1-3)GlcNAc
# Method in brief: as §1
# [7] = target: Gal(b1-3)GlcNAc(a1-6)Gal(b1-4)GlcNAc
# Method in brief: as §1
# [8] = target: Gal(b1-3)GlcNAc(b1-2)Man(a1-3)[Gal(b1-3)GlcNAc(b1-2)Man(a1-6)]Man(b1-4)GlcNAc(b1-4)GlcNAc
# Method in brief: as §1
# [9] = target: Gal(b1-3)GlcNAc(b1-2)Man(a1-3)[Gal(b1-3)GlcNAc(b1-2)Man(a1-6)]Man(b1-4)GlcNAc(b1-4)[Fuc(a1-6)]GlcNAc
# Method in brief: as §1
# [10] = target: Gal(b1-3)GlcNAc(b1-2)[Gal(b1-3)GlcNAc(b1-6)]Man(a1-6)[Gal(b1-3)GlcNAc(b1-2)Man(a1-3)]Man(b1-4)GlcNAc(b1-4)GlcNAc
# Method in brief: as §1
# [11] = target: Gal(b1-3)GlcNAc(b1-3)Gal(b1-3)GlcNAc
# Method in brief: as §1
# [12] = target: Gal(b1-3)GlcNAc(b1-3)Gal(b1-4)Glc
# Method in brief: as §1
# [13] = target: Gal(b1-3)GlcNAc(b1-3)Gal(b1-4)GlcNAc
# Method in brief: as §1
# [14] = target: Gal(b1-3)GlcNAc(b1-3)Gal(b1-4)GlcNAc(b1-6)[Gal(b1-3)GlcNAc(b1-3)]Gal(b1-4)Glc
# Method in brief: as §1
# [15] = target: Gal(b1-3)GlcNAc(b1-3)Gal(b1-4)[Fuc(a1-3)]GlcNAc(b1-6)[Gal(b1-3)GlcNAc(b1-3)]Gal(b1-4)Glc
# Method in brief: as §1
# [16] = target: Gal(b1-3)GlcNAc(b1-3)GalNAc
# Method in brief: as §1
# [17] = target: Gal(b1-3)GlcNAc(b1-6)Gal(b1-4)GlcNAc
# Method in brief: as §1
# [18] = target: Gal(b1-3)[Fuc(a1-4)]GlcNAc
# Method in brief: as §1
# [19] = target: Gal(b1-3)[Fuc(a1-4)]GlcNAc(b1-2)Man(a1-3)[Gal(b1-3)[Fuc(a1-4)]GlcNAc(b1-2)Man(a1-6)]Man(b1-4)GlcNAc(b1-4)GlcNAc
# Method in brief: as §1
# [20] = target: Gal(b1-3)[Fuc(a1-4)]GlcNAc(b1-2)Man(a1-3)[Gal(b1-3)[Fuc(a1-4)]GlcNAc(b1-2)Man(a1-6)]Man(b1-4)GlcNAc(b1-4)[Fuc(a1-6)]GlcNAc
# Method in brief: as §1
# [21] = target: Gal(b1-3)[Fuc(a1-4)]GlcNAc(b1-3)Gal(b1-3)[Fuc(a1-4)]GlcNAc
# Method in brief: as §1
# [22] = target: Gal(b1-3)[Fuc(a1-4)]GlcNAc(b1-3)Gal(b1-4)GlcNAc
# Method in brief: as §1
# [23] = target: Gal(b1-3)[Fuc(a1-4)]GlcNAc(b1-3)Gal(b1-4)[Fuc(a1-3)]GlcNAc
# Method in brief: as §1
# [24] = target: Gal(b1-3)[GlcNAc(b1-6)]GalNAc
# Method in brief: as §1
# [25] = target: Gal(b1-3)[Neu5Ac(a2-6)]GalNAc
# Method in brief: as §1
# [26] = target: Gal(b1-3)[Neu5Ac(a2-6)]GlcNAc(b1-6)Gal(b1-4)Glc
# Method in brief: as §1
# [27] = target: Gal(b1-3)[Neu5Ac(b2-6)]GalNAc
# Method in brief: as §1
# [28] = target: Gal(b1-4)Gal
# Method in brief: as §1
# [29] = target: Gal(b1-4)GalNAc(a1-3)[Fuc(a1-2)]Gal(b1-4)GlcNAc
# Method in brief: as §1
# [30] = target: Gal(b1-4)GalNAc(b1-3)[Fuc(a1-2)]Gal(b1-4)GlcNAc
# Method in brief: as §1
# [31] = target: Gal(b1-4)Glc
# Method in brief: as §1
# [32] = target: Gal(b1-4)Glc6S
# Method in brief: as §1
# [33] = target: Gal(b1-4)GlcNAc
# Method in brief: as §1
# [34] = target: Gal(b1-4)GlcNAc(a1-6)Gal(b1-4)GlcNAc
# Method in brief: as §1
# [35] = target: Gal(b1-4)GlcNAc(b1-2)Man
# Method in brief: as §1
# [36] = target: Gal(b1-4)GlcNAc(b1-2)Man(a1-3)Man(b1-4)GlcNAc(b1-4)GlcNAc
# Method in brief: as §1
# [37] = target: Gal(b1-4)GlcNAc(b1-2)Man(a1-3)[Gal(b1-4)GlcNAc(b1-2)Man(a1-6)]Man(b1-4)GlcNAc(b1-4)GlcNAc
# Method in brief: as §1
# [38] = target: Gal(b1-4)GlcNAc(b1-2)Man(a1-3)[Gal(b1-4)GlcNAc(b1-2)Man(a1-6)]Man(b1-4)GlcNAc(b1-4)[Fuc(a1-6)]GlcNAc
# Method in brief: as §1
# [39] = target: Gal(b1-4)GlcNAc(b1-2)Man(a1-3)[Gal(b1-4)GlcNAc(b1-2)][GlcNAc(b1-4)]Man(b1-4)GlcNAc(b1-4)GlcNAc
# Method in brief: as §1
# [40] = target: Gal(b1-4)GlcNAc(b1-2)Man(a1-3)[GlcNAc(b1-2)Man(a1-6)]Man(b1-4)GlcNAc(b1-4)GlcNAc
# Method in brief: as §1
# [41] = target: Gal(b1-4)GlcNAc(b1-2)Man(a1-3)[Man(a1-6)]Man(b1-4)GlcNAc(b1-4)GlcNAc
# Method in brief: as §1
# [42] = target: Gal(b1-4)GlcNAc(b1-2)Man(a1-6)Man(b1-4)GlcNAc(b1-4)GlcNAc
# Method in brief: as §1
# [43] = target: Gal(b1-4)GlcNAc(b1-2)Man(a1-6)[GlcNAc(b1-2)Man(a1-3)]Man(b1-4)GlcNAc(b1-4)GlcNAc
# Method in brief: as §1
# [44] = target: Gal(b1-4)GlcNAc(b1-2)Man(a1-6)[Man(a1-3)]Man(b1-4)GlcNAc(b1-4)GlcNAc
# Method in brief: as §1
# [45] = target: Gal(b1-4)GlcNAc(b1-2)[Gal(b1-4)GlcNAc(b1-4)]Man(a1-3)[Gal(b1-4)GlcNAc(b1-2)Man(a1-6)]Man(b1-4)GlcNAc(b1-4)GlcNAc
# Method in brief: as §1
binder,measurement,setting,value
B1,glycan array binding signal (z-score),[1],-0.289
same,glycan array binding signal (z-score),[2],-0.269
same,glycan array binding signal (z-score),[3],0.063
same,glycan array binding signal (z-score),[4],-0.273
same,glycan array binding signal (z-score),[5],-0.268
same,glycan array binding signal (z-score),[6],-0.29
same,glycan array binding signal (z-score),[7],-0.22
same,glycan array binding signal (z-score),[8],0.826
same,glycan array binding signal (z-score),[9],0.112
same,glycan array binding signal (z-score),[10],0.443
same,glycan array binding signal (z-score),[11],-0.295
same,glycan array binding signal (z-score),[12],-0.285
same,glycan array binding signal (z-score),[13],-0.054
same,glycan array binding signal (z-score),[14],-0.22
same,glycan array binding signal (z-score),[15],-0.22
same,glycan array binding signal (z-score),[16],-0.217
same,glycan array binding signal (z-score),[17],-0.219
same,glycan array binding signal (z-score),[18],-0.083
same,glycan array binding signal (z-score),[19],0.136
same,glycan array binding signal (z-score),[20],1.63
same,glycan array binding signal (z-score),[21],0.051
same,glycan array binding signal (z-score),[22],-0.149
same,glycan array binding signal (z-score),[23],-0.086
same,glycan array binding signal (z-score),[24],0.063
same,glycan array binding signal (z-score),[25],-0.061
same,glycan array binding signal (z-score),[26],-0.291
same,glycan array binding signal (z-score),[27],-0.288
same,glycan array binding signal (z-score),[28],-0.221
same,glycan array binding signal (z-score),[29],-0.29
same,glycan array binding signal (z-score),[30],-0.292
same,glycan array binding signal (z-score),[31],-0.159
same,glycan array binding signal (z-score),[32],-0.087
same,glycan array binding signal (z-score),[33],-0.109
same,glycan array binding signal (z-score),[34],-0.299
same,glycan array binding signal (z-score),[35],-0.216
same,glycan array binding signal (z-score),[36],-0.263
same,glycan array binding signal (z-score),[37],-0.226
same,glycan array binding signal (z-score),[38],-0.197
same,glycan array binding signal (z-score),[39],-0.08
same,glycan array binding signal (z-score),[40],-0.16
same,glycan array binding signal (z-score),[41],2.13
same,glycan array binding signal (z-score),[42],-0.182
same,glycan array binding signal (z-score),[43],-0.216
same,glycan array binding signal (z-score),[44],2.65
same,glycan array binding signal (z-score),[45],-0.144

# — the supplement of paper PMC8728848
